# From article PMC9911399, “Two distinct binding modes provide the RNA-binding protein RbFox with extraordinary sequence specificity”
# Changes are numbered by the printed parent chain; changes in the protein carry UniProt numbers. The list shows a part of the results.
# T1: RBFOX1 RRM (Homo sapiens, UniProt Q9NWB1 109-208)
# T1 sequence: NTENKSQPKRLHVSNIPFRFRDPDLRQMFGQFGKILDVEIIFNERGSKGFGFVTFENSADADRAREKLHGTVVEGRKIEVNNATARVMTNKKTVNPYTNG
# B1: AAUCAAG (DNA:RNA)
# RNA: GGGAGACCGGAAUUCAGAUUGUCCAAUCAAGUUAAAUCCCGUCGUAGCCACCA
# DNA 1: CAATCTGAATTCCGGTCTCCC
# DNA 2: TGGTGGCTACGACGGGATT
# B2: ACAGGUC (DNA:RNA)
# RNA: B1 RNA with A26C, U27A, C28G, A29G, A30U, G31C
# DNA 1: CAATCTGAATTCCGGTCTCCC
# DNA 2: TGGTGGCTACGACGGGATT
# B3: AGAAUGG (DNA:RNA)
# RNA: B1 RNA with A26G, U27A, C28A, A29U, A30G
# DNA 1: CAATCTGAATTCCGGTCTCCC
# DNA 2: TGGTGGCTACGACGGGATT
# B4: GCAAAAA (DNA:RNA)
# RNA: B1 RNA with A25G, A26C, U27A, C28A, G31A
# DNA 1: CAATCTGAATTCCGGTCTCCC
# DNA 2: TGGTGGCTACGACGGGATT
# B5: AAAGAGA (DNA:RNA)
# RNA: B1 RNA with U27A, C28G, A30G, G31A
# DNA 1: CAATCTGAATTCCGGTCTCCC
# DNA 2: TGGTGGCTACGACGGGATT
# B6: AGGUAUA (DNA:RNA)
# RNA: B1 RNA with A26G, U27G, C28U, A30U, G31A
# DNA 1: CAATCTGAATTCCGGTCTCCC
# DNA 2: TGGTGGCTACGACGGGATT
# B7: CCGGGUA (DNA:RNA)
# RNA: GGGAGACCGGAAUUCAGAUUGUCCCCGGGUAUUAAAUCCCGUCGUAGCCACCA
# DNA 1: CAATCTGAATTCCGGTCTCCC
# DNA 2: TGGTGGCTACGACGGGATT
# B8: GACGAUU (DNA:RNA)
# RNA: B1 RNA with A25G, U27C, C28G, A30U, G31U
# DNA 1: CAATCTGAATTCCGGTCTCCC
# DNA 2: TGGTGGCTACGACGGGATT
# B9: CAGUGCU (DNA:RNA)
# RNA: B7 RNA with C26A, G28U, U30C, A31U
# DNA 1: CAATCTGAATTCCGGTCTCCC
# DNA 2: TGGTGGCTACGACGGGATT
# B10: AAUAUUA (DNA:RNA)
# RNA: B1 RNA with C28A, A29U, A30U, G31A
# DNA 1: CAATCTGAATTCCGGTCTCCC
# DNA 2: TGGTGGCTACGACGGGATT
# B11: UCACCUG (DNA:RNA)
# RNA: B1 RNA with A25U, A26C, U27A, A29C, A30U
# DNA 1: CAATCTGAATTCCGGTCTCCC
# DNA 2: TGGTGGCTACGACGGGATT
# B12: AUAAAGU (DNA:RNA)
# RNA: B1 RNA with A26U, U27A, C28A, A30G, G31U
# DNA 1: CAATCTGAATTCCGGTCTCCC
# DNA 2: TGGTGGCTACGACGGGATT
# B13: ACUGCAU (DNA:RNA)
# RNA: B1 RNA with A26C, C28G, A29C, G31U
# DNA 1: CAATCTGAATTCCGGTCTCCC
# DNA 2: TGGTGGCTACGACGGGATT
# B14: ACAUGAG (DNA:RNA)
# RNA: B1 RNA with A26C, U27A, C28U, A29G
# DNA 1: CAATCTGAATTCCGGTCTCCC
# DNA 2: TGGTGGCTACGACGGGATT
# B15: AAUAAAU (DNA:RNA)
# RNA: B1 RNA with C28A, G31U
# DNA 1: CAATCTGAATTCCGGTCTCCC
# DNA 2: TGGTGGCTACGACGGGATT
# B16: GAGGUGG (DNA:RNA)
# RNA: B1 RNA with A25G, U27G, C28G, A29U, A30G
# DNA 1: CAATCTGAATTCCGGTCTCCC
# DNA 2: TGGTGGCTACGACGGGATT
# B17: AUGUUCC (DNA:RNA)
# RNA: B1 RNA with A26U, U27G, C28U, A29U, A30C, G31C
# DNA 1: CAATCTGAATTCCGGTCTCCC
# DNA 2: TGGTGGCTACGACGGGATT
# B18: GGCAGUU (DNA:RNA)
# RNA: B7 RNA with C25G, C26G, G27C, G28A, A31U
# DNA 1: CAATCTGAATTCCGGTCTCCC
# DNA 2: TGGTGGCTACGACGGGATT
# B19: AGCCUCA (DNA:RNA)
# RNA: B1 RNA with A26G, U27C, A29U, A30C, G31A
# DNA 1: CAATCTGAATTCCGGTCTCCC
# DNA 2: TGGTGGCTACGACGGGATT
# B20: GUCGCAU (DNA:RNA)
# RNA: B1 RNA with A25G, A26U, U27C, C28G, A29C, G31U
# DNA 1: CAATCTGAATTCCGGTCTCCC
# DNA 2: TGGTGGCTACGACGGGATT
# Biological target: T1, RBFOX1 RRM
# Assay: EMSA; HiTS-Eq, 1 nM pool, 10 min; buffer printed only for the single-RNA assays: 10 mM Tris pH 7.5, 150 mM NaCl, 3.4 mM EDTA, 0.001% NP-40, 30 C
# Conditions: tags: His6 N-terminal (pET28a); label: 5' 32P
# Method in brief: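 Purified RbFox RRM (wild type or mutant) was equilibrated for 10 min in 50 µL with 1 nM of a 5′-radiolabelled pool of RNA with 7 randomized nucleotides, its flanks annealed to DNA oligonucleotides, across increasing protein concentrations. Free RNA was separated by 8% native PAGE, excised, reverse-transcribed, PCR-barcoded and sequenced on an Illumina HiSeq 2500. Relative association constants came from read-count changes of each variant against the control reaction, normalised to the cognate motif.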
row,Binder,binding signal
1,B1,0.00185 KA relative to UGCAUGU
2,B2,0.00691 KA relative to UGCAUGU
3,B3,0.0127 KA relative to UGCAUGU
4,B4,0.00148 KA relative to UGCAUGU
5,B5,0.0065 KA relative to UGCAUGU
6,B6,0.00421 KA relative to UGCAUGU
7,B7,0.0175 KA relative to UGCAUGU
8,B8,0.00862 KA relative to UGCAUGU
9,B9,0.0142 KA relative to UGCAUGU
10,B10,0.000658 KA relative to UGCAUGU
11,B11,0.0101 KA relative to UGCAUGU
12,B12,0.00153 KA relative to UGCAUGU
13,B13,0.0118 KA relative to UGCAUGU
14,B14,0.0103 KA relative to UGCAUGU
15,B15,0.00167 KA relative to UGCAUGU
16,B16,0.0226 KA relative to UGCAUGU
17,B17,0.00732 KA relative to UGCAUGU
18,B18,0.00919 KA relative to UGCAUGU
19,B19,0.00311 KA relative to UGCAUGU
20,B20,0.019 KA relative to UGCAUGU
